Laboratory results from the supplement of paper PMC9334596.
Several values for one entry are separate records, joined by “and”; a condition that tells them apart may be missing. Equal entries are not always repeated. The full ranking holds about 5,300 compounds; the median of “PER2::LUC luminescence relative to vehicle control” is about 0.96, and the highest 2% start at about 1.3. The list shows a part of the results.

System: mPer2Luc MEF
Test: PER2::LUC luminescence relative to vehicle control (fold of vehicle); higher = higher PER2::LUC reporter signal
Conditions: 10 µM
Method in brief: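 The reported values are PER2::LUC luminescence as fold of vehicle control in mouse embryonic fibroblasts carrying the mPer2Luc reporter. Cells were seeded at ~3000 per well in 384-well plates in DMEM with 10% FBS at 37 °C and 5% CO2, and compounds were added at 10 μM 48 h later. ONE-Glo luminescence was read 24 h and 30 h after treatment.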

COc1ccc(/C=C/C(=O)Nc2ccccc2C(=O)O)cc1OC
PER2::LUC luminescence (time after treatment 24 h): 0.844 and 0.327

OCC(O)COc1cccc2ccccc12 (stereo not given)
PER2::LUC luminescence (time after treatment 24 h): 0.928
PER2::LUC luminescence (time after treatment 30 h): 1.04

CCOC(=O)C1=C(COCCN)NC(C)=C(C(=O)OC)C1c1ccccc1Cl (stereo not given)
PER2::LUC luminescence (time after treatment 24 h): 0.874 and 0.677 and 0.45
PER2::LUC luminescence (time after treatment 30 h): 0.758 and 0.718 and 0.556

CC(=O)N1CCCC1C(=O)O (stereo not given)
PER2::LUC luminescence (time after treatment 24 h): 1.03
PER2::LUC luminescence (time after treatment 30 h): 1.02

N#Cc1cnc2c(Cl)cc(NCc3cn(CCN4CCCCCC4)nn3)cc2c1Nc1ccc(F)c(Cl)c1
PER2::LUC luminescence (time after treatment 24 h): 0.736
PER2::LUC luminescence (time after treatment 30 h): 0.783

Oc1ccc(/C=C/c2cc(O)cc(O)c2)cc1
PER2::LUC luminescence (time after treatment 24 h): 1.46
PER2::LUC luminescence (time after treatment 30 h): 1.29

CC[C@H](C)[C@H](NC(=O)[C@H](Cc1ccc(O)cc1)NC(=O)[C@@H](NC(=O)[C@H](CCCNC(=N)N)NC(=O)[C@@H](N)CC(=O)O)C(C)C)C(=O)N[C@@H](Cc1cnc[nH]1)C(=O)N1CCC[C@H]1C(=O)N[C@@H](Cc1ccccc1)C(=O)O
PER2::LUC luminescence (time after treatment 24 h): 0.985
PER2::LUC luminescence (time after treatment 30 h): 0.95

O=C1NC(=NCc2cccs2)S/C1=C\c1ccc2ncccc2c1
PER2::LUC luminescence (time after treatment 24 h): 0.921
PER2::LUC luminescence (time after treatment 30 h): 0.904

COc1ccccc1N1CCN(CCN2C(=O)c3ccccc3C(C)(C)C2=O)CC1
PER2::LUC luminescence (time after treatment 24 h): 0.982
PER2::LUC luminescence (time after treatment 30 h): 0.92

Nc1nc2[nH]cnc2c(=S)[nH]1
PER2::LUC luminescence (time after treatment 24 h): 0.514
PER2::LUC luminescence (time after treatment 30 h): 0.604

CC(=O)C1C(=O)C=C(C)OC1=O (stereo not given)
PER2::LUC luminescence (time after treatment 24 h): 0.798
PER2::LUC luminescence (time after treatment 30 h): 1.04

Cc1[nH]c(/C=C2\C(=O)Nc3ccc(F)cc32)c(C)c1C(=O)NC[C@H](O)CN1CCOCC1
PER2::LUC luminescence (time after treatment 24 h): 0.666
PER2::LUC luminescence (time after treatment 30 h): 0.715

CC[N+](CC)(CC)CCOc1ccc(/C=C/c2ccccc2)cc1
PER2::LUC luminescence (time after treatment 24 h): 0.833
PER2::LUC luminescence (time after treatment 30 h): 0.89

Cc1ccccc1C(=O)Nc1ccc(C(=O)N2CCCC(O)c3cc(Cl)ccc32)c(C)c1 (stereo not given)
PER2::LUC luminescence (time after treatment 24 h): 1.15 and 1
PER2::LUC luminescence (time after treatment 30 h): 1.23 and 0.776

CC(Oc1ccc(Oc2cnc3ccc(Cl)cc3n2)cc1)C(=O)O (stereo not given)
PER2::LUC luminescence (time after treatment 24 h): 1.14
PER2::LUC luminescence (time after treatment 30 h): 1.05

CC1=CC(=O)C(C(C)C)=C/C1=N/OC(=O)c1ccccc1C
PER2::LUC luminescence (time after treatment 24 h): 1.11
PER2::LUC luminescence (time after treatment 30 h): 0.994

CN(C)C(=O)C(CCN1CCC(O)(c2ccc(Cl)cc2)CC1)(c1ccccc1)c1ccccc1
PER2::LUC luminescence (time after treatment 24 h): 0.489
PER2::LUC luminescence (time after treatment 30 h): 0.694

COc1cc(C[C@@H](CO)[C@H](CO)Cc2ccc(O)c(OC)c2)ccc1O
PER2::LUC luminescence (time after treatment 24 h): 0.941
PER2::LUC luminescence (time after treatment 30 h): 0.955

CC(C)c1cc2c(cc1S(=O)(=O)O)[C@@]1(C)CCC[C@@](C)(C(=O)O)[C@@H]1CC2
PER2::LUC luminescence (time after treatment 24 h): 1.03
PER2::LUC luminescence (time after treatment 30 h): 1

C=CCc1cccc(/C=N/NC(=O)CN2CCN(Cc3ccccc3)CC2)c1O
PER2::LUC luminescence (time after treatment 24 h): 0.453
PER2::LUC luminescence (time after treatment 30 h): 0.464

Cc1cccc(C)c1NC(=O)C(C)N (stereo not given)
PER2::LUC luminescence (time after treatment 24 h): 0.995 and 0.922
PER2::LUC luminescence (time after treatment 30 h): 1.03 and 0.962

O=C(O)C1CCCNC1 (stereo not given)
PER2::LUC luminescence (time after treatment 24 h): 1.07
PER2::LUC luminescence (time after treatment 30 h): 1

CO/N=C(\C(=O)N[C@@H]1C(=O)N2C(C(=O)O)=C(CSc3nnnn3C)CS[C@H]12)c1csc(N)n1
PER2::LUC luminescence (time after treatment 24 h): 1.14
PER2::LUC luminescence (time after treatment 30 h): 1.25

CC(C(=O)O)c1ccc2c(c1)[nH]c1ccc(Cl)cc12 (stereo not given)
PER2::LUC luminescence (time after treatment 24 h): 1.05
PER2::LUC luminescence (time after treatment 30 h): 1.01

O=C(Nc1cc(Oc2cc(F)c(NC(=O)C3(C(=O)Nc4ccc(F)cc4)CC3)cc2F)ccn1)C1CC1
PER2::LUC luminescence (time after treatment 24 h): 0.722
PER2::LUC luminescence (time after treatment 30 h): 0.723

O=C(Nc1cccc(C(F)(F)F)c1)Nc1cc(S(=O)(=O)NC2CC2)ccc1-c1ccsc1
PER2::LUC luminescence (time after treatment 24 h): 0.889
PER2::LUC luminescence (time after treatment 30 h): 0.805

O=C1c2c(O)cccc2C([C@@H]2O[C@H](CO)[C@@H](O)[C@H](O)[C@H]2O)c2cc(CO)cc(O)c21 (stereo not given in full)
PER2::LUC luminescence (time after treatment 24 h): 0.894
PER2::LUC luminescence (time after treatment 30 h): 1.05

C[C@H]1O[C@@H](O[C@H]2[C@@H](O)C[C@H](O[C@H]3[C@@H](O)C[C@H](O[C@H]4CC[C@@]5(C)[C@H](CC[C@@H]6[C@@H]5C[C@@H](O)[C@]5(C)[C@@H](C7=CC(=O)OC7)CC[C@]65O)C4)O[C@@H]3C)O[C@@H]2C)C[C@H](O)[C@@H]1O
PER2::LUC luminescence (time after treatment 24 h): 1.04
PER2::LUC luminescence (time after treatment 30 h): 0.884

CN1CCN(C2=Nc3cc(F)ccc3Cc3ccccc32)CC1
PER2::LUC luminescence (time after treatment 24 h): 0.906
PER2::LUC luminescence (time after treatment 30 h): 0.883

O=C(O)CCC/C=C\C/C=C\C/C=C\C/C=C\CCCCCO
PER2::LUC luminescence (time after treatment 24 h): 0.987
PER2::LUC luminescence (time after treatment 30 h): 0.936

CN(C)CCN1C(=O)c2cccc3cc(NC(N)=O)cc(c23)C1=O
PER2::LUC luminescence (time after treatment 24 h): 0.999
PER2::LUC luminescence (time after treatment 30 h): 0.806

NC(N)=NC(N)=Nc1cccc(Cl)c1
PER2::LUC luminescence (time after treatment 24 h): 0.938 and 1.03
PER2::LUC luminescence (time after treatment 30 h): 1.18 and 0.872

COc1cc([S+](C)[O-])ccc1-c1nc2cccnc2[nH]1 (stereo not given)
PER2::LUC luminescence (time after treatment 24 h): 1
PER2::LUC luminescence (time after treatment 30 h): 0.947

CC(C)=CCC[C@@H](C)[C@H]1CC[C@@]2(C)C3=C(CC[C@]12C)[C@@]1(C)CC[C@H](O)C(C)(C)[C@@H]1CC3
PER2::LUC luminescence (time after treatment 24 h): 1.06
PER2::LUC luminescence (time after treatment 30 h): 0.995

CC(=O)OC1CCC2(C)C(=CCC3C2CCC2(C)C(C(C)CCCC(C)C)CCC32)C1 (stereo not given)
PER2::LUC luminescence (time after treatment 24 h): 1.04
PER2::LUC luminescence (time after treatment 30 h): 0.938

C[C@H](CCC(=O)O)[C@H]1CC[C@H]2[C@@H]3[C@H](O)C[C@@H]4C[C@H](O)CC[C@]4(C)[C@H]3C[C@H](O)[C@]12C
PER2::LUC luminescence (time after treatment 24 h): 0.994
PER2::LUC luminescence (time after treatment 30 h): 0.981

O=c1ccc2cc(O)c(O)cc2o1
PER2::LUC luminescence (time after treatment 24 h): 0.867
PER2::LUC luminescence (time after treatment 30 h): 0.732

OB1OCc2cc(F)ccc21
PER2::LUC luminescence (time after treatment 24 h): 1.04
PER2::LUC luminescence (time after treatment 30 h): 1.01

Cc1c(OCC(F)(F)F)ccnc1C[S@@+]([O-])c1nc2ccccc2[nH]1
PER2::LUC luminescence (time after treatment 24 h): 1.68 and 1.14
PER2::LUC luminescence (time after treatment 30 h): 1.73 and 1.12

COc1cc2c(N3CCN(C(=O)Nc4ccc(OC(C)C)cc4)CC3)ncnc2cc1OCCCN1CCCCC1
PER2::LUC luminescence (time after treatment 24 h): 0.772
PER2::LUC luminescence (time after treatment 30 h): 0.597

Cc1cc(O)c2c(c1)C(=O)c1cccc(O)c1C2=O
PER2::LUC luminescence (time after treatment 24 h): 0.954
PER2::LUC luminescence (time after treatment 30 h): 0.968

NC(=O)c1cn(Cc2c(F)cccc2F)nn1
PER2::LUC luminescence (time after treatment 24 h): 1.07
PER2::LUC luminescence (time after treatment 30 h): 1.14

COc1cc(N)c(Cl)cc1C(=O)OCCCN1CCCCC1
PER2::LUC luminescence (time after treatment 24 h): 0.953
PER2::LUC luminescence (time after treatment 30 h): 0.845

CC(C(=O)O)c1ccc(-c2ccccc2)c(F)c1 (stereo not given)
PER2::LUC luminescence (time after treatment 24 h): 1.15
PER2::LUC luminescence (time after treatment 30 h): 1.06

O=C(OCC(O)CO)c1ccccc1Nc1ccnc2cc(Cl)ccc12 (stereo not given)
PER2::LUC luminescence (time after treatment 24 h): 0.955
PER2::LUC luminescence (time after treatment 30 h): 1.09

CN(CCO)CC(O)Cn1cnc2c1c(=O)n(C)c(=O)n2C (stereo not given)
PER2::LUC luminescence (time after treatment 24 h): 0.994
PER2::LUC luminescence (time after treatment 30 h): 1.06

C#Cc1cccc(Nc2ncnc3cc(OCCOC)c(OCCOC)cc23)c1
PER2::LUC luminescence (time after treatment 24 h): 0.831 and 0.801
PER2::LUC luminescence (time after treatment 30 h): 0.869 and 0.721

COc1ccc(Cn2ccc3ccc(C(=O)NO)cc32)cc1
PER2::LUC luminescence (time after treatment 24 h): 0.933
PER2::LUC luminescence (time after treatment 30 h): 0.784

Cc1onc(-c2ccccc2Cl)c1C(=O)N[C@@H]1C(=O)N2[C@@H]1SC(C)(C)[C@@H]2C(=O)O
PER2::LUC luminescence (time after treatment 24 h): 0.905 and 0.888
PER2::LUC luminescence (time after treatment 30 h): 1.04 and 0.952

CC(C)Nc1cccnc1N1CCN(C(=O)c2cc3cc(NS(C)(=O)=O)ccc3[nH]2)CC1
PER2::LUC luminescence (time after treatment 24 h): 1.07
PER2::LUC luminescence (time after treatment 30 h): 0.996

Cn1c(=O)c2[nH]c(-c3ccccc3)nc2n(C)c1=O
PER2::LUC luminescence (time after treatment 24 h): 0.821
PER2::LUC luminescence (time after treatment 30 h): 1.03

COC(=O)C1=CO[C@@H](O[C@@H]2O[C@H](CO)[C@@H](O)[C@H](O)[C@H]2O)[C@@H]2C(CO)=CC[C@H]12
PER2::LUC luminescence (time after treatment 24 h): 0.952
PER2::LUC luminescence (time after treatment 30 h): 0.958

CN1C(=O)C(c2c[nH]c3ccccc23)=C(c2c[nH]c3ccccc23)C1=O
PER2::LUC luminescence (time after treatment 24 h): 0.981
PER2::LUC luminescence (time after treatment 30 h): 1.01
